Measured values published in PMC9911399, “Two distinct binding modes provide the RNA-binding protein RbFox with extraordinary sequence specificity”.
Positions count from the first letter of the chain named. The list shows a part of the results.

T1: RBFOX1 RRM RbFoxmut (Fox-RRM*) (Homo sapiens, UniProt Q9NWB1 109-208, R118D;E147R;N151S;E152T)
T1 sequence: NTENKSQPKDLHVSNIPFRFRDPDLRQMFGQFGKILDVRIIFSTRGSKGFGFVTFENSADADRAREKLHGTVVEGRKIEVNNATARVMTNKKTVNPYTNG

B1: GGGUUCA (DNA:RNA)
RNA: GGGAGACCGGAAUUCAGAUUGUCCGGGUUCAUUAAAUCCCGUCGUAGCCACCA
DNA 1: CAATCTGAATTCCGGTCTCCC
DNA 2: TGGTGGCTACGACGGGATT
B2: GGGGCGC (DNA:RNA)
RNA: B1 RNA with U28G, U29C, C30G, A31C
DNA 1: CAATCTGAATTCCGGTCTCCC
DNA 2: TGGTGGCTACGACGGGATT
B3: UCACAAU (DNA:RNA)
RNA: GGGAGACCGGAAUUCAGAUUGUCCUCACAAUUUAAAUCCCGUCGUAGCCACCA
DNA 1: CAATCTGAATTCCGGTCTCCC
DNA 2: TGGTGGCTACGACGGGATT
B4: AAAAUAA (DNA:RNA)
RNA: B1 RNA with G25A, G26A, G27A, U28A, C30A
DNA 1: CAATCTGAATTCCGGTCTCCC
DNA 2: TGGTGGCTACGACGGGATT
B5: AGUACCG (DNA:RNA)
RNA: B1 RNA with G25A, G27U, U28A, U29C, A31G
DNA 1: CAATCTGAATTCCGGTCTCCC
DNA 2: TGGTGGCTACGACGGGATT
B6: GGACAAU (DNA:RNA)
RNA: B3 RNA with U25G, C26G
DNA 1: CAATCTGAATTCCGGTCTCCC
DNA 2: TGGTGGCTACGACGGGATT
B7: GCUGCUG (DNA:RNA)
RNA: B1 RNA with G26C, G27U, U28G, U29C, C30U, A31G
DNA 1: CAATCTGAATTCCGGTCTCCC
DNA 2: TGGTGGCTACGACGGGATT
B8: UUUAACA (DNA:RNA)
RNA: B1 RNA with G25U, G26U, G27U, U28A, U29A
DNA 1: CAATCTGAATTCCGGTCTCCC
DNA 2: TGGTGGCTACGACGGGATT
B9: GGGAAUG (DNA:RNA)
RNA: B1 RNA with U28A, U29A, C30U, A31G
DNA 1: CAATCTGAATTCCGGTCTCCC
DNA 2: TGGTGGCTACGACGGGATT
B10: AAUGUCA (DNA:RNA)
RNA: B1 RNA with G25A, G26A, G27U, U28G
DNA 1: CAATCTGAATTCCGGTCTCCC
DNA 2: TGGTGGCTACGACGGGATT
B11: GUCGCGA (DNA:RNA)
RNA: B1 RNA with G26U, G27C, U28G, U29C, C30G
DNA 1: CAATCTGAATTCCGGTCTCCC
DNA 2: TGGTGGCTACGACGGGATT
B12: CCUAUGU (DNA:RNA)
RNA: B3 RNA with U25C, A27U, C28A, A29U, A30G
DNA 1: CAATCTGAATTCCGGTCTCCC
DNA 2: TGGTGGCTACGACGGGATT
B13: GGAUUCC (DNA:RNA)
RNA: B1 RNA with G27A, A31C
DNA 1: CAATCTGAATTCCGGTCTCCC
DNA 2: TGGTGGCTACGACGGGATT
B14: CCAACUG (DNA:RNA)
RNA: B3 RNA with U25C, C28A, A29C, A30U, U31G
DNA 1: CAATCTGAATTCCGGTCTCCC
DNA 2: TGGTGGCTACGACGGGATT
B15: UCUUAUC (DNA:RNA)
RNA: B3 RNA with A27U, C28U, A30U, U31C
DNA 1: CAATCTGAATTCCGGTCTCCC
DNA 2: TGGTGGCTACGACGGGATT
B16: GUAGUCG (DNA:RNA)
RNA: B1 RNA with G26U, G27A, U28G, A31G
DNA 1: CAATCTGAATTCCGGTCTCCC
DNA 2: TGGTGGCTACGACGGGATT
B17: UCCCUAA (DNA:RNA)
RNA: B3 RNA with A27C, A29U, U31A
DNA 1: CAATCTGAATTCCGGTCTCCC
DNA 2: TGGTGGCTACGACGGGATT
B18: CGUUUAU (DNA:RNA)
RNA: B1 RNA with G25C, G27U, C30A, A31U
DNA 1: CAATCTGAATTCCGGTCTCCC
DNA 2: TGGTGGCTACGACGGGATT
B19: CUCGCUU (DNA:RNA)
RNA: B3 RNA with U25C, C26U, A27C, C28G, A29C, A30U
DNA 1: CAATCTGAATTCCGGTCTCCC
DNA 2: TGGTGGCTACGACGGGATT
B20: CUCGGCA (DNA:RNA)
RNA: B1 RNA with G25C, G26U, G27C, U28G, U29G
DNA 1: CAATCTGAATTCCGGTCTCCC
DNA 2: TGGTGGCTACGACGGGATT
B21: GGAAUCA (DNA:RNA)
RNA: B1 RNA with G27A, U28A
DNA 1: CAATCTGAATTCCGGTCTCCC
DNA 2: TGGTGGCTACGACGGGATT
B22: UUACAAU (DNA:RNA)
RNA: B3 RNA with C26U
DNA 1: CAATCTGAATTCCGGTCTCCC
DNA 2: TGGTGGCTACGACGGGATT
B23: UAUCAAG (DNA:RNA)
RNA: B3 RNA with C26A, A27U, U31G
DNA 1: CAATCTGAATTCCGGTCTCCC
DNA 2: TGGTGGCTACGACGGGATT
B24: UUCCGGC (DNA:RNA)
RNA: B3 RNA with C26U, A27C, A29G, A30G, U31C
DNA 1: CAATCTGAATTCCGGTCTCCC
DNA 2: TGGTGGCTACGACGGGATT
B25: GUCUUAC (DNA:RNA)
RNA: B1 RNA with G26U, G27C, C30A, A31C
DNA 1: CAATCTGAATTCCGGTCTCCC
DNA 2: TGGTGGCTACGACGGGATT
B26: ACCAACU (DNA:RNA)
RNA: B3 RNA with U25A, A27C, C28A, A30C
DNA 1: CAATCTGAATTCCGGTCTCCC
DNA 2: TGGTGGCTACGACGGGATT
B27: CUGUGUG (DNA:RNA)
RNA: B1 RNA with G25C, G26U, U29G, C30U, A31G
DNA 1: CAATCTGAATTCCGGTCTCCC
DNA 2: TGGTGGCTACGACGGGATT
B28: CUUUGAU (DNA:RNA)
RNA: B3 RNA with U25C, C26U, A27U, C28U, A29G
DNA 1: CAATCTGAATTCCGGTCTCCC
DNA 2: TGGTGGCTACGACGGGATT
B29: UCGCGUU (DNA:RNA)
RNA: B3 RNA with A27G, A29G, A30U
DNA 1: CAATCTGAATTCCGGTCTCCC
DNA 2: TGGTGGCTACGACGGGATT
B30: UCUAUCA (DNA:RNA)
RNA: B1 RNA with G25U, G26C, G27U, U28A
DNA 1: CAATCTGAATTCCGGTCTCCC
DNA 2: TGGTGGCTACGACGGGATT
B31: GAGGUCG (DNA:RNA)
RNA: B1 RNA with G26A, U28G, A31G
DNA 1: CAATCTGAATTCCGGTCTCCC
DNA 2: TGGTGGCTACGACGGGATT

Each binder was assayed against T1, RBFOX1 RRM RbFoxmut (Fox-RRM*) (assay: EMSA; HiTS-Eq, 1 nM pool, 10 min; buffer printed only for the single-RNA assays: 10 mM Tris pH 7.5, 150 mM NaCl, 3.4 mM EDTA, 0.001% NP-40, 30 C). Details: tags: His6 N-terminal (pET28a); label: 5' 32P.
Procedure, shortened: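 Purified wild-type or mutant RbFox RRM at increasing concentrations was equilibrated with 1 nM of 5′-radiolabelled RNA carrying 7 randomized nucleotides for 10 min in 50 µL. Unbound RNA was separated by 8% native PAGE and sequenced. Relative association constants came from read-count changes of each RNA species compared with the control reaction, normalised to the cognate motif.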

| Binder | binding signal |
| --- | --- |
| B1 | 0.205 KA relative to UGCAUGU |
| B2 | 0.126 KA relative to UGCAUGU |
| B3 | 0.048 KA relative to UGCAUGU |
| B4 | 0.0839 KA relative to UGCAUGU |
| B5 | 0.111 KA relative to UGCAUGU |
| B6 | 0.0574 KA relative to UGCAUGU |
| B7 | 0.0803 KA relative to UGCAUGU |
| B8 | 0.104 KA relative to UGCAUGU |
| B9 | 1.15 KA relative to UGCAUGU |
| B10 | 0.121 KA relative to UGCAUGU |
| B11 | 0.109 KA relative to UGCAUGU |
| B12 | 0.148 KA relative to UGCAUGU |
| B13 | 0.0795 KA relative to UGCAUGU |
| B14 | 0.112 KA relative to UGCAUGU |
| B15 | 0.0734 KA relative to UGCAUGU |
| B16 | 0.125 KA relative to UGCAUGU |

| Binder | binding signal |
| --- | --- |
| B17 | 0.082 KA relative to UGCAUGU |
| B18 | 0.147 KA relative to UGCAUGU |
| B19 | 0.117 KA relative to UGCAUGU |
| B20 | 0.127 KA relative to UGCAUGU |
| B21 | 0.426 KA relative to UGCAUGU |
| B22 | 0.0483 KA relative to UGCAUGU |
| B23 | 0.0678 KA relative to UGCAUGU |
| B24 | 0.0669 KA relative to UGCAUGU |
| B25 | 0.0985 KA relative to UGCAUGU |
| B26 | 0.0858 KA relative to UGCAUGU |
| B27 | 0.388 KA relative to UGCAUGU |
| B28 | 0.084 KA relative to UGCAUGU |
| B29 | 0.132 KA relative to UGCAUGU |
| B30 | 0.116 KA relative to UGCAUGU |
| B31 | 0.187 KA relative to UGCAUGU |
